Test results published in patent US11826357B2, “Bacterial efflux pump inhibitors” (RUTGERS, THE STATE UNIVERSITY OF NEW JERSEY, priority 2017, dated 2023).
Where a name gives a salt, the structure may show the parent alone. The name of at least one read-out is uncertain.

Assays:
[1] = system: Escherichia coli ATCC 25922; assay: Bacterial EPI assay: MIC of clarithromycin in the presence of the EPI; format: cell-based; conditions: fold increase of clarithromycin activity at the EPI concentration printed in the same cell
[2] = system: Pseudomonas aeruginosa ATCC 27853; assay: Standard bacterial EPI assay: MIC of levofloxacin in the absence and presence of the EPI; format: cell-based; conditions: fold increase of levofloxacin activity at the EPI concentration printed in the same cell
Method: MIC assays were conducted in accordance with Clinical and Laboratory Standards Institute (CLSI) guidelines for broth microdilution. A 96-well plate containing cation-adjusted Mueller-Hinton (CAMH broth with 2-fold serial dilution of compounds was inoculated with log-phase bacterial at 5×10^5 CFU/mL. The final volume in each well was 100 μL. Each compound was tested in duplicate. The microtiter plates were incubated in an aerobic environment for 18 hours at 37° C. Then the bacterial growth was tested by reading the plate with a VersaMax plate reader (Molecular Devices, Inc.) at 600 nm. The MIC was defined as the lowest compound concentration that inhibited 90% of bacteria growth.
The EPI assay for the purposes of these studies represents a MIC assay in which the MIC of the antibiotic against the bacteria is tested in the presence of an experimental efflux pump inhibitor (EPI). The highest concentration of the EPI present in the assay typically is ½ of the intrinsic MIC of the compound. If the intrinsic MIC of the EPI is greater than 100 μg/mL, the EPI assay was tested with 50 μg/mL. Using serial dilutions of the EPI, its enhancement of antibiotic activity was then evaluated. The relative EPI activity was decided by comparing the MIC of the antibiotic in the presence of the EPI compound with the intrinsic MIC of the antibiotic alone. For the evaluation of the efficacy of an EPI against bacteria that were pre-exposed to an antibiotic, the inoculum of bacteria that used was developed from a bacterial culture isolated as a single colony following exposure at ½ the MIIC of the antibiotic (so as to induce efflux pump expression), was to be used in combination with the EPI.
The impact of Example 2 on the MIC values of two test antibiotics (levofloxacin and cefepime) against P. aeruginosa ATCC 27853 were evaluated using our standard EPI assay. Both levofloxacin and cefepime are known substrates of efflux pumps in P. aeruginosa, and are thus well-suited to be test antibiotics to assay for EPI activity.
In our standard EPI assay, the MIC of the test antibiotic is determined in the absence and presence of sub-inhibitory concentrations of the EPI. Initially, the sub-inhibitory concentration used was ½×MIC of the EPI. […] The MIC of levofloxacin against P. aeruginosa ATCC 27853 in the absence of EPI is 1 μg/mL.

Compound	Enhanced Activity in E. coli (fold increase) [1]	Enhanced Activity in P. aeruginosa (fold increase) [2]
NCCC[C@@H](N)CNC(=O)c1[nH]c2cc(-c3ccc(F)cc3)ccc2c1-c1ccc(F)cc1 [Example 1, (R)—N-(2,5-diaminopentyl)-3,6-bis(4-fluorophenyl)-1H-indole-2-carboxamide dihydrochloride]	16 x	2 x
NCCC[C@H](N)CNC(=O)c1[nH]c2cc(-c3ccc(F)cc3)ccc2c1C1CC1 [Example 2, (S)-3-cyclopropyl-N-(2,5-diaminopentyl)-6-(4-fluorophenyl)-1H-indole-2-carboxamide dihydrochloride]	32 x	32 x
NCCC[C@H](N)CNC(=O)c1[nH]c2cc(-c3ccc(F)cc3)ccc2c1Cc1ccccc1 [Example 3, (S)-3-benzyl-N-(2,5-diaminopentyl)-6-(4-fluorophenyl)-1H-indole-2-carboxamide dihydrochloride]	32 x	4 x
NCCC[C@H](N)CNC(=O)c1[nH]c2cc(-c3ccc(F)cc3)ccc2c1-c1ccncc1 [Example 4, (S)—N-(2,5-diaminopentyl)-6-(4-fluorophenyl)-3-(pyridin-4-yl)-1H-indole-2-carboxamide trihydrochloride]	8 x	32 x
NCCC[C@H](N)CNC(=O)c1[nH]c2cc(-c3ccc(F)cc3)ccc2c1-c1ccc(O)cc1 [Example 5, (S)—N-(2,5-diaminopentyl)-6-(4-fluorophenyl)-3-(4-hydroxyphenyl)-1H-indole-2-carboxamide dihydrochloride]	4 x	1 x
NCCC[C@H](N)CNC(=O)c1[nH]c2cc(-c3ccc(F)cc3)ccc2c1-c1ccc(C(F)(F)F)cc1 [Example 6, (S)—N-(2,5-diaminopentyl)-6-(4-fluorophenyl)-3-(4-(trifluoromethyl)phenyl)-1H-indole-2-carboxamide dihydrochloride]	2 x	1 x
NC(CC[C@H](N)CNC(=O)c1[nH]c2cc(-c3ccc(F)cc3)ccc2c1-c1ccc(F)cc1)C1CC1 (stereo partly drawn) [Example 7, N-((2S)-2,5-diamino-5-cyclopropylpentyl)-3,6-bis(4-fluorophenyl)-1H-indole-2-carboxamide dihydrochloride]	2 x	1 x
CC(N)CC[C@H](N)CNC(=O)c1[nH]c2cc(-c3ccc(F)cc3)ccc2c1-c1ccc(F)cc1 (stereo partly drawn) [Example 8, N-((2S)-2,5-diaminohexyl)-3,6-bis(4-fluorophenyl)-1H-indole-2-carboxamide dihydrochloride]	8 x	2 x
NC[C@@H]1CN[C@H](CNC(=O)c2[nH]c3cc(-c4ccc(F)cc4)ccc3c2-c2ccc(F)cc2)C1 [Example 9, N-(((2S,4R)-4-(aminomethyl)pyrrolidin-2-yl)methyl)-3,6-bis(4-fluorophenyl)-1H-indole-2-carboxamide dihydrochloride]	64 x	32 x
NC[C@H]1CN[C@H](CNC(=O)c2[nH]c3cc(-c4ccc(F)cc4)ccc3c2-c2ccc(F)cc2)C1 [Example 10, N-(((2S,4S)-4-(aminomethyl)pyrrolidin-2-yl)methyl)-3,6-bis(4-fluorophenyl)-1H-indole-2-carboxamide dihydrochloride]	512 x	1 x
NC[C@H]1CN[C@H](CNC(=O)c2[nH]c3ccccc3c2-c2ccc(F)cc2)C1 [Example 11, N-(((2S,4S)-4-(aminomethyl)pyrrolidin-2-yl)methyl)-3-(4-fluorophenyl)-1H-indole-2-carboxamide dihydrochloride]	16 x	16 x
NC[C@@H]1CN[C@H](CNC(=O)c2[nH]c3ccccc3c2-c2ccc(F)cc2)C1 [Example 12, N-(((2S,4R)-4-(Aminomethyl)pyrrolidin-2-yl)methyl)-3-(4-fluorophenyl)-1H-indole-2-carboxamide dihydrochloride]	4 x	8 x
NCCC[C@H](N)CNC(=O)c1[nH]c2ccc(-c3ccc(F)cc3)cc2c1-c1cccc(O)c1 [Example 17, (S)—N-(2,5-diaminopentyl)-5-(4-fluorophenyl)-3-(3-hydroxyphenyl)-1H-indole-2-carboxamide dihydrochloride]	8 x	1 x
NCCC[C@H](N)CNC(=O)c1[nH]c2ccc(-c3ccccc3)cc2c1-c1ccccc1 [Example 18, (S)—N-(2,5-diaminopentyl)-3,5-diphenyl-1H-indole-2-carboxamide dihydrochloride]	8 x	1 x
Cc1cc(C)cc(-c2ccc3[nH]c(C(=O)NC[C@@H](N)CCCN)c(-c4cc(C)cc(C)c4)c3c2)c1 [Example 19, (S)—N-(2,5-diaminopentyl)-3,5-bis(3,5-dimethylphenyl)-1H-indole-2-carboxamide dihydrochloride]	1 x	2 x
NCCC[C@H](N)CNC(=O)c1[nH]c2cc(-c3ccc(F)cc3)ccc2c1C#CC1CC1 [Example 20, (S)-3-(cyclopropylethynyl)-N-(2,5-diaminopentyl)-6-(4-fluorophenyl)-1H-indole-2-carboxamide dihydrochloride]	8 x	1 x
NCCC[C@H](N)CNC(=O)c1[nH]c2cc(-c3ccc(F)cc3)ccc2c1CCC1CC1 [Example 21, (S)-3-(2-cyclopropylethyl)-N-(2,5-diaminopentyl)-6-(4-fluorophenyl)-1H-indole-2-carboxamide dihydrochloride]	64 x	16 x
NCCC[C@H](N)CNC(=O)c1[nH]c2c(F)cccc2c1-c1ccc(F)cc1 [Example 22, (S)—N-(2,5-diaminopentyl)-7-fluoro-3-(4-fluorophenyl)-1H-indole-2-carboxamide dihydrochloride]	8 x	8 x
NC[C@@H]1CN[C@H](CNC(=O)c2[nH]c3c(F)cccc3c2-c2ccc(F)cc2)C1 [Example 23, N-(((2S,4R)-4-(aminomethyl)pyrrolidin-2-yl)methyl)-7-fluoro-3-(4-fluorophenyl)-1H-indole-2-carboxamide dihydrochloride]	16 x	16 x
COc1cccc2c(-c3ccc(F)cc3)c(C(=O)NC[C@@H](N)CCCN)[nH]c12 [Example 24, (S)—N-(2,5-diaminopentyl)-3-(4-fluorophenyl)-7-methoxy-1H-indole-2-carboxamide dihydrochloride]	4 x	8 x
NCCC[C@H](N)CNC(=O)c1[nH]c2c(O)cccc2c1-c1ccc(F)cc1 [Example 25, (S)—N-(2,5-diaminopentyl)-3-(4-fluorophenyl)-7-hydroxy-1H-indole-2-carboxamide dihydrochloride]	64 x	4 x
